According to patent publication US20220291215A1 (UNIVERSITY HEALTH NETWORK, published 2022):

Biological target: T1, recombinant 10x His-tagged CD4 protein (extracellular domain of human CD4, GS linker, 10x histidine tag) (human, UniProt P01730 partial chain)
T1 construct: also called recombinant CD4; sCD4 (analyte)
Experiment: biolayer interferometry

B1: biotinylated recombinant wild-type DR1 (extracellular domains of DRA1*01:01 and wild-type DRB1*01:01 with leucine zippers) (peptide-MHC)
MHC II alpha: not shown
MHC II beta: GDTRPRFLWQLKFECHFFNGTERVRLLERCIYNQEESVRFDSDVGEYRAVTELGRPDAEYWNSQKDLLEQRRAAVDTYCRHNYGVGESFTVQRRVEPKVTVYPSKTQPLQHHNLLVCSVSGFYPGSIEVRWFRNGQEEKAGVVSTGLIQNGDWTFQTLVMLETVPRSGEVYTCQVEHPSVTSPLTVEWRARSESAQSKGGGGSLEIEAAFLERENTALETRVAELRQRVQRLRNRVSQYRTRYGPLGGGKGSGLNDIFEAQKIEWHE
notes: also called biotinylated HLA-DR1 (ligand)
- binding result: no binding (tested: 26 µM)
